In all, about 390,000 compounds went through this assay and about 17,000 (4.4%) were called active. Inconclusive results, whose numbers are uncertain, are shown with a selection of clear calls. Calls come from the whole dose curve; as a rule, active = well fitted inhibition curve with a large enough effect; inconclusive = small, poorly fitted or top-dose-only effect; inactive = no such curve, though single readings can be large or run the other way. A potency beside an inconclusive call is a rough fit, not a confirmed value.
Target: Lysine-specific demethylase 4A (Homo sapiens) (UniProt O75164)
Test: qHTS Assay for Inhibitors of JMJD2A-Tudor Domain; note: nearly all actives have a fitted effect of over 50% in size
Details: AlphaScreen JMJD2A-Tudor / H3K4me3 peptide binding; activity change, negative = inhibition: at 114 µM (top of the series)
% is set by controls: 0 for no effect and ±100 for the full control effect; potency is the fitted concentration of half-maximal effect; tags give direction and shape of the fitted curve.

Sequence of UniProt O75164 (O75164 whole entry, looked up, the tested form may be a part): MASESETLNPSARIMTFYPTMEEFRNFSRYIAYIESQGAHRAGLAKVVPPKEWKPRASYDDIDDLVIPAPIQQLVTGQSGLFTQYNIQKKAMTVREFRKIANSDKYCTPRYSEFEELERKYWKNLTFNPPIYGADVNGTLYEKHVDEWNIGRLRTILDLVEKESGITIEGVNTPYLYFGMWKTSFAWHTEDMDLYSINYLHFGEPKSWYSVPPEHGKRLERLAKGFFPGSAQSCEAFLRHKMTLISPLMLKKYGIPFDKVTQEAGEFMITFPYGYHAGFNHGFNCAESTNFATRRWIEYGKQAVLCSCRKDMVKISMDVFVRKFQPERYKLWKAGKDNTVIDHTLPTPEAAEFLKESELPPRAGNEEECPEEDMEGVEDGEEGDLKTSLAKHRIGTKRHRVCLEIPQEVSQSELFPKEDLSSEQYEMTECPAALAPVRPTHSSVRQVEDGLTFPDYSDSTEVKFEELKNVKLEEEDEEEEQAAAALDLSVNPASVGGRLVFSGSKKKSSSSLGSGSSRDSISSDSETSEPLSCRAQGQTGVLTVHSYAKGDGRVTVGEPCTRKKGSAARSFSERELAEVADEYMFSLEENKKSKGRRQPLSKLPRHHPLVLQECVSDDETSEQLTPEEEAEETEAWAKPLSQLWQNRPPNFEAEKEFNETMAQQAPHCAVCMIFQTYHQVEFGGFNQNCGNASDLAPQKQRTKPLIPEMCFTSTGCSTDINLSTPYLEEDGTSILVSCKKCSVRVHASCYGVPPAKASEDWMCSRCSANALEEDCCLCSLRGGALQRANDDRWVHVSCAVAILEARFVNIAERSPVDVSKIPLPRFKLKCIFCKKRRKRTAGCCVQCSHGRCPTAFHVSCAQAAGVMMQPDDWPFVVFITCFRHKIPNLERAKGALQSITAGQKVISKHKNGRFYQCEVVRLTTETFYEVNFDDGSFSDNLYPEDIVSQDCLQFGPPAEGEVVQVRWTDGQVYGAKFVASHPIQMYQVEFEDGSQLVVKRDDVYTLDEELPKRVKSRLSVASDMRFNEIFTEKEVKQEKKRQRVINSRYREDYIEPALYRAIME

Potency, inactive:
Cc1c(P(=S)(c2ccccc2)c2ccccc2)c2ccccc2n1CCCc1ccccc1, O=C(NC(=S)Nc1ccccc1)c1ccc(Br)o1, O=C(CCCCCn1c(=O)[nH]c2ccsc2c1=O)NCc1ccccc1, CCC(C)NC(=O)c1ccc(Cn2c(=O)c3cccn3c3cccnc32)cc1 (stereo not drawn), CC(C)N1CCC(N2CCN(C/C=C/c3ccc(F)cc3)CC2CCO)CC1 (stereo not drawn), Cc1ccnc(SCc2ccc([N+](=O)[O-])cc2)n1, Cc1ccc(/C=C/c2onc(C)c2S(=O)(=O)N2CCC(C(=O)Nc3cccc(C#N)c3)CC2)cc1, O=C(NCCCN1CCN(c2ccccc2F)CC1)c1ccc2nc(Cc3ccccc3)oc2c1, O=C(NC(=S)NCC1CCCO1)c1ccccc1[N+](=O)[O-] (stereo not drawn), CCOc1ccccc1OCCC(=O)OCC(=O)Nc1c(C)nn(-c2ccccc2)c1C, Cc1ccc(S(=O)(=O)CC(c2ccccc2)N2CCCCC2)cc1 (stereo not drawn), CC(C)C(C(=O)NCC1CCCO1)N(C(=O)CNS(=O)(=O)c1ccccc1)C1CCCCC1 (stereo not drawn), CC1COc2ccccc2N1C(=O)c1ccc(Cl)nc1 (stereo not drawn)

Potency, active:
Cc1ccc(NCc2nnc(SCC(=O)NCc3ccco3)n2CC2CCCO2)cc1Cl (stereo not drawn) 79.4 µM, O=C(NCc1ccco1)C1CCCN(c2nnc(-n3cccc3)s2)C1 (stereo not drawn) 56.2 µM, CCOC(=O)c1c2c([nH]c(=S)c1C#N)CCCC2 8.91 µM, Cn1c(-c2sccc2OCc2ccccc2)n[nH]c1=S 3.16 µM, O=C(N/N=C/c1cc(Cl)cc(Cl)c1O)c1ccncc1 22.4 µM, CCOC(=O)N1CCN(C/C(Cl)=C/c2ccccc2)CC1 1.78 µM, Cc1cccc(NC(=O)/C(=C\c2ccc([N+](=O)[O-])o2)NC(=O)c2ccc(Cl)cc2)c1 35.5 µM, O=C(Nc1nnc(C2=COCCO2)o1)c1ccc(S(=O)(=O)N2CCCC2)cc1 50.1 µM, C=CCc1cc(Cl)ccc1OCCNCCN1CCOCC1 7.94 µM, Cc1ccc(C(c2ccc(C)o2)c2cccc([N+](=O)[O-])c2O)o1 50.1 µM, CCOc1ccccc1/C=N/N1CCN(Cc2ccccc2)CC1 56.2 µM, Cc1c(Cl)cccc1-n1c(-c2cccnc2)n[nH]c1=S 35.5 µM

Potency, inconclusive:
O=C(CSc1nnnn1-c1ccccc1)NC(=O)NCc1ccco1 56.2 µM [inhibitor, partial curve], COc1ccc(N2CCN(CC(=O)Nc3ccc(C)c(C)c3)CC2)cc1 56.2 µM [inhibitor, partial curve], Oc1c(C(c2cccc(Br)c2)N2CCCC2)sc2nc(-c3ccco3)nn12 (stereo not drawn) 56.2 µM [inhibitor, partial curve], CCOC(=O)c1c(C=O)c(C)n(Cc2ccccc2Cl)c1C 56.2 µM [inhibitor, partial curve], CCOC(=O)c1c(/N=C/N(C)C)sc(/C=N/Nc2ccccc2)c1-c1ccccc1Cl 50.1 µM [inhibitor, partial curve], Cc1cc(C(=O)CSc2nnc(Nc3ccccc3F)s2)c(C)n1CC1CCCO1 (stereo not drawn) 12.6 µM [inhibitor, full curve, poor fit], CCCC(=O)Nc1ccc(C(=O)NCCCn2ccnc2)cc1 89.1 µM [inhibitor, partial curve], Cc1ccc(S(=O)(=O)NCC(=O)OCN2C(=O)c3ccccc3C2=O)cc1 3.16 µM [inhibitor, single point], COc1ccc(OC(C)C(=O)N(C)Cc2nc(-c3ccc(OC)cc3)no2)cc1 (stereo not drawn) 79.4 µM [inhibitor, single point], N#Cc1nc(-c2ccco2)oc1N1CCc2ccccc2C1 39.8 µM [inhibitor, partial curve], Cc1cc(C)c(Cn2cnc(-c3ccc([N+](=O)[O-])cc3)c2)c(C)c1 10 µM [inhibitor, full curve, poor fit], Cc1cc(C(=O)COC(=O)c2ccncc2)c(C)n1CCc1ccc(F)cc1 89.1 µM [inhibitor, partial curve], O=C1COc2ccc(C(=O)COC(=O)/C=C/c3ccc(Br)o3)cc2N1 63.1 µM [inhibitor, partial curve, poor fit], O=C(O)c1ccccc1Nc1cccc(OCc2ccc3ccccc3n2)c1 63.1 µM [inhibitor, partial curve, poor fit], CCCC1=Nc2cc(C(=O)N3CCN(c4ccccn4)CC3)ccc2Sc2ccc(C)cc21 25.1 µM [inhibitor, partial curve], COc1ccc(N2Cc3ccccc3C2)cc1Cl 56.2 µM [inhibitor, partial curve], Cc1ccc(-c2c[nH]c(=S)n2-c2ccccc2F)cc1 8.91 µM [inhibitor, full curve], COc1ccc(C2(N3CCN(c4cc(C)ccc4C)CC3)C(=O)c3ccccc3C2=O)cc1 7.94 µM [inhibitor, partial curve], COC(=O)/C=C1\N/C(=N\c2nc(C)cc(C)n2)N(c2ccc(C)cc2)C1=O 50.1 µM [inhibitor, partial curve], CCOC(=O)CN(C(=O)CSc1nnc(CNc2ccc(C)cc2C)o1)c1ccccc1 79.4 µM [inhibitor, partial curve], CCOC(=O)c1ccc(N2C(=O)c3n[nH]c(-c4ccco4)c3C2c2cccc([N+](=O)[O-])c2)cc1 (stereo not drawn) 7.08 µM [inhibitor, full curve]

Activity change, negative = inhibition, inconclusive:
CN=c1scc(-c2cc(OC)ccc2OC)n1/N=C/c1c(C)[nH]c2ccccc12 -83.7% [inhibitor]

Activity change, negative = inhibition, inactive:
Cc1ccc(NC2SC(=O)N(Cc3cccc(C(=O)O)c3)C2=O)cc1 (stereo not drawn) -16.8% [at 11.4 µM]

Source: PubChem BioAssay AID504339 (National Center for Advancing Translational Sciences (NCATS), 2011)
